# Screen size: about 410,000 compounds; about 260 (0.063%) were called active. The shares of active, inactive and inconclusive entries below differ from those in the screen. The call rests on the fitted dose curve; in most records, active means well fitted activation curve with a large enough effect; inconclusive means small, poorly fitted or top-dose-only effect; inactive means no such curve, though single readings can be large or run the other way. No potency is given beside an inconclusive call; the fits are too rough.
# Assay: qHTS for compounds that reverse cellular toxicity of Amyloid beta (A-beta) peptide in yeast: Primary Screen; further: nearly all actives have a fitted effect of over 55% in size
# Details: yeast expressing A-beta42, growth rescue, OD600, 48 h; growth rescue: at 46.1 µM (top of the series), 0% DMSO, 100% iron-clioquinol control
# Outline: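 Yeast growth medium received pinned compounds, then yeast cells expressing toxic A-beta were added; plates incubated at 30 C for 48 hr. Growth read as absorbance at 600 nm, normalized to DMSO and equimolar FeCl3 plus clioquinol controls.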
# Potency means the concentration at half of the fitted maximal effect; tags describe the fitted curve by direction and shape.
Structure (SMILES),Potency,growth rescue
O=C(Nc1ccc2c(c1)N(C1CCCC1)C(=O)c1ccccc1S2)c1cccc(F)c1,inactive,–
CC(=O)c1c(NC(=O)c2ccccc2)[nH]c(-c2ccccc2)nc1=S,"inconclusive [activator, full curve, poor fit]",–
CC(C)c1ccc2c(c1)C1(NN=C(c3ccccc3)S1)C(=O)N2 (stereo unspecified),"inconclusive [activator, single point]",–
FC(F)(F)c1cc(CCN2C(=S)NC[C@@H]2CC2CCCCC2)cc(C(F)(F)F)c1,"inconclusive [activator, full curve]",–
O=S(=O)(Nc1ccc2ccccc2c1)N1CCCCC1,–,inconclusive: 34.3% [activator]
S=c1[nH]nc(-c2ccco2)n1Cc1ccccc1,inactive,–
Cc1cccc(-n2c(-c3ccccc3)c[nH]c2=S)c1C,"inconclusive [activator, single point]",–
CCN(c1ccccc1)S(=O)(=O)c1ccc(C(=O)N2CC(C)CC(C)C2)cc1 (stereo unspecified),inactive,–
Fc1ccccc1NC(=S)NCCc1ccc(Cl)cc1,"inconclusive [activator, partial curve, poor fit]",–
CCOc1cccc(C(=O)N(Cc2ccc(N(C)C)cc2)CC2CCCO2)c1 (stereo unspecified),inactive,–
Cc1ccccc1CC1C(=O)Nc2ccc(Br)cc21 (stereo unspecified),"inconclusive [activator, partial curve, poor fit]",–
CCc1nnc(NC(=O)CCC(=O)N2CCN(S(=O)(=O)c3ccc(OC)cc3)CC2)s1,"inconclusive [activator, single point]",–
O=C(c1cccs1)N1CCN(S(=O)(=O)c2cccc(Cl)c2Cl)CC1,"inconclusive [activator, partial curve]",–
COc1cc(NC(=S)NCCc2c[nH]c3ccccc23)c(OC)cc1Cl,"inconclusive [activator, single point]",–
COc1ccc(OCCn2c(C(C)Oc3ccccc3)nc3ccccc32)cc1 (stereo unspecified),"inconclusive [activator, single point]",–
CCc1nc2ccc(C(=O)N(C)CC(=O)Nc3ccc(Cl)c(C(F)(F)F)c3)cc2nc1CC,"inconclusive [activator, single point]",–
O=C(N/N=C/c1ccccn1)c1ccc(Br)cc1,"inconclusive [activator, single point]",–
Cc1ccc(CCNC(=O)Cn2ncc3c([nH]c4ccc(C)cc43)c2=O)cc1,inactive,–
CCOC(=O)c1ccc[n+](CC(=O)c2ccc(NC(=O)c3ccccc3)cc2)c1,"inconclusive [activator, partial curve, poor fit]",–
COc1ccc(C(=O)NC(=S)NC(C)c2ccccc2)cc1 (stereo unspecified),"inconclusive [activator, single point]",–
CCOC(=O)C1C(c2cccs2)NC(=O)N(C)C1(O)C(F)(F)F (stereo unspecified),"inconclusive [activator, single point]",–
Cc1cc(Cl)ccc1OCC(=O)N1CCCN(C(=O)COc2ccc(Cl)cc2C)CC1,inactive,–

Structure (SMILES),Potency,growth rescue
Cc1ccnc2nc(C(=O)OCCOc3cccc(Br)c3)nn12,"inconclusive [activator, partial curve, poor fit]",–
NNC(=S)NCCc1ccccc1,"inconclusive [activator, single point]",–
CO/N=C/NC(=O)NOCc1ccc(Cl)cc1Cl,"inconclusive [activator, partial curve, poor fit]",–
N#C/C(=C\c1cccnc1)C(=O)Nc1ccccc1,"inconclusive [activator, single point]",–
COc1cccc(CNC(=S)Nc2cccc(Cl)c2C)c1,"inconclusive [activator, partial curve, poor fit]",–
CCOCc1c(C(=O)N2CCN(CC(=O)Nc3ccc(F)cc3)CC2)oc2ccccc12,"inconclusive [activator, partial curve]",–
O=C(NC(=S)Nc1ccc2c(c1)OCCO2)c1cccc2ccccc12,"inconclusive [activator, single point]",–
CCCN(CC1CC1)C(=S)NC(=O)c1ccccc1Br,"inconclusive [activator, partial curve, poor fit]",–
CCc1ccc(NC(=O)C(NS(=O)(=O)c2cccc3nsnc23)c2ccccc2)cc1 (stereo unspecified),"inconclusive [activator, partial curve, poor fit]",–
CC(C)(C)OC(=O)NCCCC[C@H](NC(=O)c1nc[nH]c1C(=O)N[C@@H](CCCCNC(=O)OC(C)(C)C)C(=O)OC(C)(C)C)C(=O)OC(C)(C)C,inactive,–
CC(O)(c1cccc(F)c1)c1nc(-c2cccc(C(F)(F)F)c2)cs1 (stereo unspecified),inactive,–
Cc1ccnc(SCc2cc(=O)c(OC(=O)c3ccc(Br)o3)co2)n1,"inconclusive [activator, partial curve]",–
COC(=O)Oc1nsnc1N1CCOCC1,inactive,–
O=C(NC(=S)NC1CCCc2ccccc21)c1ccco1 (stereo unspecified),active: 11.2 µM,–
CCCCS(=O)(=O)CC(O)CSc1nc(-c2ccc(C)cc2)cc(-c2ccccc2)c1C#N (stereo unspecified),inactive,–
C#C[C@]1(O)CC[C@H]2[C@@H]3CCc4cc(OC5CCCC5)ccc4[C@H]3CC[C@@]21C,"inconclusive [activator, single point]",–
Cc1cccc(N(CC(=O)NCCSCc2ccc(Cl)cc2)S(C)(=O)=O)c1C,"inconclusive [activator, single point]",–
Cc1ccc(C(=O)NC(=S)N(C)Cc2ccccc2)cc1,"inconclusive [activator, single point]",–
COc1ccccc1N1CCN(S(=O)(=O)c2ccc(Cl)cc2)CC1,"inconclusive [activator, single point]",–
Cc1noc(C)c1C(=O)Nc1ccc(-n2ccc(C(F)(F)F)n2)cc1,"inconclusive [activator, single point]",–
N/C(=N\C(=S)Nc1ccc2c(c1)OCO2)c1ccccc1,"inconclusive [activator, partial curve]",–
Cc1c(Cl)cccc1NC(=S)NCC1COc2ccccc2O1 (stereo unspecified),"inconclusive [activator, partial curve, poor fit]",–

Structure (SMILES),Potency,growth rescue
O=C(COC(=O)c1ccc(F)cc1F)Nc1ccc(S(=O)(=O)N2CCOCC2)cc1,inactive,–
C[C@@H]1CN([C@H](C)CO)C(=O)c2cc(/C=C/c3ccccc3)cnc2O[C@H]1CN(C)C(=O)NC1CCCCC1,inactive,–
CCCCCCC(=O)N(O)C1CC(=O)N(c2ccc(Br)cc2)C1=O (stereo unspecified),inactive,–
O=C(O)/C=C/C(=O)Nc1ccc2c(c1)C(=O)c1ccccc1C2=O,"inconclusive [activator, single point]",–
CC(=O)Nc1cccc(NC(=O)CCn2c(=O)sc3ccccc32)c1,"inconclusive [activator, partial curve, poor fit]",–
O=C(Cc1cccs1)Nc1nc2ccccc2s1,"inconclusive [activator, partial curve, poor fit]",–
CC1=CC(C)(C)N(C(=O)Nc2ccccc2)c2ccccc21,"inconclusive [activator, partial curve, poor fit]",–
c1ccc(-c2nccc(-c3ccco3)n2)nc1,"inconclusive [activator, partial curve, poor fit]",–
CN(CC(=O)Nc1ccc(F)c(F)c1F)C(=O)CCCc1nc2ccccc2c(=O)[nH]1,–,inconclusive: -34.3% [activator]
Cc1ccc(SCc2ccc(C(=O)Nc3nccs3)o2)cc1,"inconclusive [activator, partial curve]",–
COC(=O)c1sccc1NC(=S)NCc1ccc(Cl)cc1,"inconclusive [activator, single point]",–
COc1ccc(CNc2ccc3cc(S(=O)(=O)N4CCCCC4)ccc3n2)cc1,"inconclusive [activator, single point]",–
Cc1ccc2c(Cl)cc(Cl)c(OCC(=O)O)c2n1,inactive,–
COc1cc(C(O)c2nc(-c3csc4ccccc34)cs2)ccc1F (stereo unspecified),"inconclusive [activator, single point]",–
O=C(O)CSc1c(-c2ccccc2)[nH]c2ccccc12,"inconclusive [activator, single point]",–
CC(C)(C)NC(=O)NC(=O)COC(=O)CCCc1c[nH]c2ccccc12,"inconclusive [activator, partial curve, poor fit]",–
O=C(O)CN1C(=O)/C(=C\c2cccc(OCc3ccccc3)c2)SC1=S,"inconclusive [activator, full curve, poor fit]",–
CCCCNC(=S)N/N=C1\CCCCc2ccccc21,"inconclusive [activator, full curve, poor fit]",–
O=S(=O)(NNc1nccc(C(F)(F)F)n1)c1cccc(Cl)c1Cl,"inconclusive [activator, full curve]",–
CC(C)Nc1nc(N)c(C(=O)C23CC4CC(CC(C4)C2)C3)s1,"inconclusive [activator, partial curve]",–
CCS(=O)(=O)N1CCC(C(=O)N2CCOCC2)CC1,–,inconclusive: -39.8% [activator]
CCOC(=O)c1c(NC(=O)Cn2nnc(-c3ccc(Cl)cc3)n2)sc(CC)c1C,"inconclusive [activator, single point]",–

# Source: PubChem BioAssay AID1347071 (National Center for Advancing Translational Sciences (NCATS), 2019)
